Reference: PMC4336329 (PLoS ONE, 2015)
Among all 310,000 compounds or so, about 2,200 (0.71%) showed an effect of 50% or more. Effects have a minus sign here. The list shows a part of the results.

Biological target: human ether-à-go-go-related gene (hERG) potassium channel (human, UniProt Q12809)
Test: primary screen, population patch clamp on CHO cells stably expressing hERG

Sequence of human ether-à-go-go-related gene (hERG) potassium channel (Q12809 whole entry, looked up): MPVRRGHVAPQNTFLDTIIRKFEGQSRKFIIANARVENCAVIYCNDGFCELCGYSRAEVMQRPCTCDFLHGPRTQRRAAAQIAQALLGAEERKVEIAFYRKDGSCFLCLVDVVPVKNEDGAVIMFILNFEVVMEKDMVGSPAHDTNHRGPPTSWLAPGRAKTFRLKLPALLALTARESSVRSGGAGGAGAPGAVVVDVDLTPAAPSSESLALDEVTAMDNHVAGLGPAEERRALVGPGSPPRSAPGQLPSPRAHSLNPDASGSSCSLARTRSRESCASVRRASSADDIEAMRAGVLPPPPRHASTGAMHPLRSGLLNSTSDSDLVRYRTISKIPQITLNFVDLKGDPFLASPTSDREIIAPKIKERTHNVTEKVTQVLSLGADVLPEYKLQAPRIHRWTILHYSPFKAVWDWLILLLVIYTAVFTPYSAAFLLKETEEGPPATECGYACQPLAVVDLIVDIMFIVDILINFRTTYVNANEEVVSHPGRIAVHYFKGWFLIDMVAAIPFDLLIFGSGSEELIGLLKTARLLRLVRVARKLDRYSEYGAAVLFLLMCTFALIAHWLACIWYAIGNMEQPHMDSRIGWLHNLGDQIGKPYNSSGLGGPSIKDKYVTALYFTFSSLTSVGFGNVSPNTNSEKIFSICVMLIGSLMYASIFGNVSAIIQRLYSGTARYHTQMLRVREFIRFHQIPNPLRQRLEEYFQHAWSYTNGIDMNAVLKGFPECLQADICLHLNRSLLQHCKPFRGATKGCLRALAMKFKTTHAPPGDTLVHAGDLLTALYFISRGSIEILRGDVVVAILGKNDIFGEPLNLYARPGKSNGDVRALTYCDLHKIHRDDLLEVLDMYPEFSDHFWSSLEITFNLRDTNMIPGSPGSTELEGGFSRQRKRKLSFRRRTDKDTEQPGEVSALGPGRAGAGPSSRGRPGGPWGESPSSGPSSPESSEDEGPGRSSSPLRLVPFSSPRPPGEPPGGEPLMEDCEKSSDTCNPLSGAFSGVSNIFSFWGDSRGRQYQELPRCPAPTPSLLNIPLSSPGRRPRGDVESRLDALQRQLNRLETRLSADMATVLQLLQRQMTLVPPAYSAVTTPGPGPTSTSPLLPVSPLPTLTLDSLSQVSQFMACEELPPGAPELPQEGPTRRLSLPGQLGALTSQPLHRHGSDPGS

SMILES | hERG current change (%, negative = inhibition) at 1uM [%]
Cc1ccc(S(=O)(=O)NCc2cn3ccsc3n2)c(C)c1 | 5.58
Cc1cccc(-n2c(O)c(C=NCCN3CCCCC3)c(=O)[nH]c2=O)c1 | -4.47
CC1(c2ccccc2)CC(C)(C)N2C(=O)C(=O)c3cccc1c32 (stereo not drawn) | 3.87
COC(=O)c1ccc(NC(=O)COC(=O)c2cccc3c(=O)c(C)c(-c4ccccc4)oc23)cc1 | 14.2
COc1cc(N2CCCC2)c(OC)cc1/C=C(/C#N)c1ccc(Br)cc1 | -12.2
COC(=O)Cc1c(O)ccn(Cc2ccc(Cl)c(Cl)c2)c1=O | 9.62
Cc1ccc(S(=O)(=O)N2CCN(C(C)C(=O)Nc3ccccc3-c3ccccc3)CC2)cc1 (stereo not drawn) | 1.53
CCOc1ccc(CCNC(=O)COC(=O)C2CC2)cc1OCC | 3.24
Cc1cccc(OCC(=O)Nc2nc(-c3ccncc3)cs2)c1 | 8.13
COC(=O)c1ccccc1NC(=O)Nc1ccc(C(=O)N2CCCC2)cc1 | 2.47
CCN(CC)C(=O)Cn1cc(S(=O)(=O)CC(=O)Nc2ccc(OC)c(OC)c2)c2ccccc21 | 0.334
Cc1cc(C)cc(-n2nnnc2SCC(=O)Nc2nc(-c3ccc(F)cc3)cs2)c1 | 5.7
O=C(NCC1CCCCC1)c1ccc(Br)o1 | 16.5
CCC(C)NC(=O)CN1C(=O)NC2NC(=O)NC21 (stereo not drawn) | 15
Cn1cc(CNCc2ccc(OC(F)(F)F)cc2)c(-c2ccc3c(c2)OCCO3)n1 | 6.43
O=C(Nc1ccccc1)NC1CCN(CCCN2C(=O)c3ccccc3C2=O)CC1 | -21.8
CC(C)(C)NS(=O)(=O)c1ccc(NC(=S)NC(=O)C2CCC2)cc1 | 14.3
O=C(Cn1cncc1-c1ccc([N+](=O)[O-])cc1)Nc1cccc2ccccc12 | 16.5
CC(=O)Nc1ccccc1NC(=O)C/C(C)=N/NC(=O)c1ccncc1 | 15.2
O=C(NCCCN1CCOCC1)c1cccs1 | 15.9
COc1ccc(N2CCN(Cc3nc(N)nc(Nc4ccccc4OC)n3)CC2)cc1 | -14.5
CCOC(=O)n1n[n+]([O-])c2ccccc21 | 24.6
COc1ccc(C(=O)N2CCN(S(=O)(=O)c3ccc(C)cc3C)CC2)cc1OC | 2.34

SMILES | hERG current change (%, negative = inhibition) at 1uM [%]
Cc1cccc(C)c1NC(=O)CN(C)C(=O)CCc1nc2sc3c(c2c(=O)[nH]1)CCCC3 | 13.4
CCCN1CCc2c(sc(NC(=O)CCS(=O)(=O)c3ccccc3)c2C(=O)OC)C1.Cl | -33.1
Clc1ccc(-c2nnc(SCc3ccon3)o2)c(Cl)c1 | 4.17
O=C(COc1ccc([N+](=O)[O-])cc1)Nc1ccc(N2CCCC2)cc1 | 10.6
Cn1cccc1C1(C(F)(F)F)NCCNC1=O (stereo not drawn) | 10
CCc1cccc(NS(=O)(=O)c2c(C)n[nH]c2C)c1.Cl | 8.15
CC(C)CCNC(=O)c1ccc2c(Cl)c3c(nc2c1)CCC3 | 15.3
Nc1nc2ccc(-c3nc4ccccc4o3)cc2s1 | 11.2
CCOC(=O)C(C(=O)Nc1nc2ccccc2s1)C1CCCCC1 (stereo not drawn) | 16
CCOC(=O)c1ccc(NC(=O)c2nccnc2C(=O)O)cc1 | 6.66
O=C(Nc1nnc(-c2ccccc2Cl)o1)c1nc2ccccc2s1 | 2.97
Cl.Nc1cnccc1Oc1cccc(C(F)(F)F)c1 | 6.26
Cc1ccc(NC(=O)c2cccc(S(=O)(=O)N3CCCCC3)c2)cc1 | 14.4
CCCC(C(=O)NCc1ccco1)N(C(=O)CNS(=O)(=O)c1ccccc1)C1CCCC1 (stereo not drawn) | 5.48
Clc1ccc(-c2ccc(CN3CCCCC3)o2)cc1 | 12.4
Cc1cc2c(n1-c1ccc(Br)cc1)CC(C)(C)CC2=O | 3.2
Cc1ccnc(NC(=O)c2cccc(S(=O)(=O)NCc3ccccc3)c2)c1 | 12.6
Nc1c(C(=O)NC2CCCCC2)nsc1C(=O)OCC(=O)NC1CCCCC1 | 15.3
COc1ccccc1NC(=O)c1cc2c(CO)cnc(C)c2oc1=Nc1ccccc1 | 14
CN(Cc1nccs1)C(=O)C1CCC(=O)N(Cc2ccccc2F)C1 (stereo not drawn) | 7.29
COCCOC(=O)c1c(C)oc2ccc(OC(=O)c3cccs3)cc12 | 12.9
Cc1cccc(N2CC(c3nc4ccccc4[nH]3)CC2=O)c1 (stereo not drawn) | 6.24
COc1ccc(OCCOc2ccccc2[N+](=O)[O-])cc1 | 5.72

SMILES | hERG current change (%, negative = inhibition) at 1uM [%]
CCC(C)(C)NC(=O)c1ccccc1Oc1ccccc1 | 6.02
CC(=O)Nc1c(I)c(NC(C)=O)c(I)c(C(=O)O)c1I.CNC[C@H](O)[C@@H](O)[C@H](O)[C@H](O)CO | 17.7
COC(=O)c1ccc(C(C(=O)NCc2ccccc2)N(Cc2ccco2)C(=O)c2cnccn2)cc1 (stereo not drawn) | -0.742
CC1C(C)N1CC(O)Cn1ccnc1[N+](=O)[O-] (stereo not drawn) | 6.59
O=C(O)c1ccccc1NC(=O)C(Cc1ccccc1)N1C(=O)c2ccccc2C1=O (stereo not drawn) | 17
CN(C(=O)CN1C(=O)CCSc2ccc(S(=O)(=O)N3CCCC3)cc21)c1ccccc1 | 2.25
Cc1cc([N+](=O)[O-])nn1CC(=O)Nc1ccc(Cl)cn1 | -1.05
O=C(CSc1nc2ccccc2[nH]1)N=Nc1c(O)[nH]c2ccccc12 | 10.9
CCOc1ccc(-c2cc(C(=O)NN)[nH]n2)cc1 | 2.32
Cc1ccc(NC(=O)Cc2ncc(C(F)(F)F)cc2Cl)cc1Cl | -1.28
Clc1ccc(-c2nc(-c3ccccn3)no2)cc1Cl | 3.92
CCOc1ccc(Nc2nc(-c3sc(N)nc3C)cs2)cc1 | 15.1
O=C(Nc1ncc(Cc2ccccc2Cl)s1)C1CCCO1 (stereo not drawn) | 14.2
CC(C)C(C)(C#N)NC(=O)CSc1nnc(-c2ccccc2)o1 (stereo not drawn) | 0.833
CCN(C(=O)CSc1ncn[nH]1)c1cccc2ccccc12 | 7.22
O=C(CCc1nnc2ccc(N3CCCC3)nn12)Nc1ccc(F)c(F)c1 | 10.1
CCC1Sc2ccccc2N(CC(=O)NC2CCCC2)C1=O (stereo not drawn) | 8.72
Cc1ccc(NC(=O)CSc2ncc3ccccn23)cc1 | 11.1
CCOCCCn1c(=S)[nH]c2cc(C(=O)N3CCN(c4ccccc4)CC3)ccc2c1=O | 15.4
Cc1ccccc1CN1C(=O)Nc2ccccc2C(=O)N1C(C)(C)C | 5.98
COc1cc(NC(=O)CN(C)S(=O)(=O)c2ccc3c(c2)CC(C)N3C(C)=O)cc(OC)c1OC (stereo not drawn) | 17.2
Cn1cccc1/C=N/n1cnnc1 | -2.75
Cc1ccc(C(C)C)c(OCC(=O)N2CCOCC2)c1 | 2.8

SMILES | hERG current change (%, negative = inhibition) at 1uM [%]
COCCNC(=O)C(OC(=O)c1ccco1)c1ccccc1OC (stereo not drawn) | 11.2
c1ccc(CSc2nnc(-c3ccccc3)c(-c3ccccc3)n2)cc1 | 6.21
O=C(Cn1cc(C(F)(F)F)ccc1=O)N/N=C/c1ccc(O)cc1 | 12.3
COc1ccc(/C(C)=N/NC(=O)CNC(=O)/C=C\c2ccccc2)c(OC)c1 | 12.2
COCCNC(=O)CSc1nc2cc(OC)c(OC)cc2c(=O)n1Cc1ccco1 | -14.1
Cc1ccc(C(=O)SC2=NCCS2)cc1 | 5.07
OCc1ccccc1SSc1ccccc1CO | 13.8
O=C(Nc1nccs1)C1CC=CCC1 (stereo not drawn) | 14.4
O=C(Cc1ccon1)c1ccc(O)cc1O | 11.3
Cc1ccc(OCC(=O)Nc2ccc(-c3nc4ncccc4o3)cc2)cc1 | 14.1
O=C1/C(=C\c2cc(Br)cc(Br)c2O)SC(=S)N1Cc1ccccc1 | 14.5
CC(C)n1c(-c2cccnc2)nc2cnccc21 | 8.82
C=CCNc1nc(N)c(C(=O)Nc2cc(C)on2)s1 | 12.5
Cc1[nH]c2ccccc2c1C(=O)CSc1nc2ncc(Cl)cc2[nH]1 | 14.3
COC(=O)[C@]1(Cc2ccccc2)N[C@H](c2ccc(-c3ccc(F)cc3)cc2)[C@@H]2C(=O)N(C)C(=O)[C@@H]21.O=C(O)C(F)(F)F | 13.4
Cc1oc(-c2nc3ccccc3n2C)cc1C(=O)c1ccccc1 | 7.96
Cc1cc(SCC(=O)Nc2cccc(S(=O)(=O)NC3=NCCCCC3)c2)nc2ccccc12 | -1.53
CCC(C)(C)NC(=O)C(c1ccncc1)N(Cc1cccs1)C(=O)Cn1nnc2ccccc21 (stereo not drawn) | -13
O=C1CCC([N+](=O)[O-])C(c2ccc(Cl)cc2)N1 (stereo not drawn) | -0.713
CC(C)CC(/C(O)=C(\C#N)c1nc2ccccc2[nH]1)N1C(=O)c2ccccc2C1=O (stereo not drawn) | 16.4
CCN(CC(=O)Nc1c(F)cccc1F)C(=O)CCNS(=O)(=O)c1ccccc1C(F)(F)F | 12.3
